# Data published in article PMC3293247 (Biochemistry, 2012).
# B1: Hsp27-D3 (Hsp27 S15D/S78D/S82D in the cysteine-free background) (natural protein)
# chain: not shown
# Biological target: the molecule itself
# Experiment: SEC-MALS
protein,measurement,value
B1,stoichiometry N,2
